Laboratory results taken from the supplement of paper PMC8728848.
This is one part of the list.

How the values were obtained:
Assay in all cases: glycan array binding signal (z-score within array); higher = stronger binding
Conditions in all cases: glycan notation: IUPAC condensed, linker removed
[1] = molecular target: Fuc(a1-2)Gal
Outline: (§1)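 Arrays were curated from the Consortium for Functional Glycomics database, 3228 in total, and kept only where the protein sequence was available. Binding is expressed as a within-array Z-score. This score was averaged across arrays of the same protein sequence at different concentrations or buffers and across linkers, and negative values can be read as non-binding.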

[2] = molecular target: Fuc(a1-2)Gal(b1-3)GalNAc
Outline: as §1

[3] = molecular target: Fuc(a1-2)Gal(b1-3)GalNAc(a1-3)[Fuc(a1-2)]Gal(b1-4)Glc
Outline: as §1

[4] = molecular target: Fuc(a1-2)Gal(b1-3)GalNAc(a1-3)[Fuc(a1-2)]Gal(b1-4)GlcNAc
Outline: as §1

[5] = molecular target: Fuc(a1-2)Gal(b1-3)GalNAc(b1-3)Gal
Outline: as §1

[6] = molecular target: Fuc(a1-2)Gal(b1-3)GalNAc(b1-3)Gal(a1-4)Gal(b1-4)Glc
Outline: as §1

[7] = molecular target: Fuc(a1-2)Gal(b1-3)GalNAc(b1-4)[Neu5Ac(a2-3)]Gal(b1-4)Glc
Outline: as §1

[8] = molecular target: Fuc(a1-2)Gal(b1-3)GlcNAc
Outline: as §1

[9] = molecular target: Fuc(a1-2)Gal(b1-3)GlcNAc(b1-2)Man(a1-3)[Fuc(a1-2)Gal(b1-3)GlcNAc(b1-2)Man(a1-6)]Man(b1-4)GlcNAc(b1-4)GlcNAc
Outline: as §1

[10] = molecular target: Fuc(a1-2)Gal(b1-3)GlcNAc(b1-2)Man(a1-3)[Fuc(a1-2)Gal(b1-3)GlcNAc(b1-2)Man(a1-6)]Man(b1-4)GlcNAc(b1-4)[Fuc(a1-6)]GlcNAc
Outline: as §1

[11] = molecular target: Fuc(a1-2)Gal(b1-3)GlcNAc(b1-3)Gal(b1-4)Glc
Outline: as §1

[12] = molecular target: Fuc(a1-2)Gal(b1-3)GlcNAc(b1-3)GalNAc
Outline: as §1

[13] = molecular target: Fuc(a1-2)Gal(b1-3)GlcNAc(b1-3)[Fuc(a1-2)Gal(b1-3)GlcNAc(b1-6)]GalNAc
Outline: as §1

[14] = molecular target: Fuc(a1-2)Gal(b1-3)GlcNAc(b1-3)[Gal(b1-4)GlcNAc(b1-6)]Gal(b1-4)Glc
Outline: as §1

[15] = molecular target: Fuc(a1-2)Gal(b1-3)GlcNAc(b1-3)[Neu5Ac(a2-6)Gal(b1-4)GlcNAc(b1-6)]Gal(b1-4)Glc
Outline: as §1

[16] = molecular target: Fuc(a1-2)Gal(b1-3)GlcNAc6S
Outline: as §1

[17] = molecular target: Fuc(a1-2)Gal(b1-3)[Fuc(a1-4)]GlcNAc
Outline: as §1

[18] = molecular target: Fuc(a1-2)Gal(b1-3)[Fuc(a1-4)]GlcNAc(b1-2)Man(a1-3)[Fuc(a1-2)Gal(b1-3)[Fuc(a1-4)]GlcNAc(b1-2)Man(a1-3)]Man(b1-4)GlcNAc(b1-4)GlcNAc
Outline: as §1

[19] = molecular target: Fuc(a1-2)Gal(b1-3)[Fuc(a1-4)]GlcNAc(b1-2)Man(a1-3)[Fuc(a1-2)Gal(b1-3)[Fuc(a1-4)]GlcNAc(b1-2)Man(a1-6)]Man(b1-4)GlcNAc(b1-4)[Fuc(a1-6)]GlcNAc(b1-4)[Fuc(a1-6)]GlcNAc
Outline: as §1

[20] = molecular target: Fuc(a1-2)Gal(b1-3)[Fuc(a1-4)]GlcNAc(b1-3)[Fuc(a1-3)[Gal(b1-4)]GlcNAc(b1-6)]Gal(b1-4)Glc
Outline: as §1

[21] = molecular target: Fuc(a1-2)Gal(b1-3)[Fuc(a1-4)]GlcNAc(b1-3)[Gal(b1-4)GlcNAc(b1-6)]Gal(b1-4)Glc
Outline: as §1

[22] = molecular target: Fuc(a1-2)Gal(b1-4)Fuc(a1-3)]GlcNAc(b1-2)Man(a1-3)[Fuc(a1-2)Gal(b1-4)[Fuc(a1-3)]GlcNAc(b1-2)Man(a1-6)]Man(b1-4)GlcNAc(b1-4)GlcNAc
Outline: as §1

[23] = molecular target: Fuc(a1-2)Gal(b1-4)Glc
Outline: as §1

[24] = molecular target: Fuc(a1-2)Gal(b1-4)Glc6S
Outline: as §1

[25] = molecular target: Fuc(a1-2)Gal(b1-4)GlcNAc
Outline: as §1

[26] = molecular target: Fuc(a1-2)Gal(b1-4)GlcNAc(b1-2)Man
Outline: as §1

[27] = molecular target: Fuc(a1-2)Gal(b1-4)GlcNAc(b1-2)Man(a1-3)[Fuc(a1-2)Gal(b1-4)GlcNAc(b1-2)Man(a1-6)]Man(b1-4)GlcNAc(b1-4)GlcNAc
Outline: as §1

[28] = molecular target: Fuc(a1-2)Gal(b1-4)GlcNAc(b1-2)Man(a1-3)[Fuc(a1-2)Gal(b1-4)GlcNAc(b1-2)Man(a1-6)]Man(b1-4)GlcNAc(b1-4)[Fuc(a1-6)]GlcNAc
Outline: as §1

[29] = molecular target: Fuc(a1-2)Gal(b1-4)GlcNAc(b1-2)[Fuc(a1-2)Gal(b1-4)GlcNAc(b1-4)]Man(a1-3)[Fuc(a1-2)Gal(b1-4)GlcNAc(b1-2)Man(a1-6)]Man(b1-4)GlcNAc(b1-4)GlcNAc
Outline: as §1

[30] = molecular target: Fuc(a1-2)Gal(b1-4)GlcNAc(b1-3)Gal(b1-4)GlcNAc
Outline: as §1

B1: Jacalin (Artocarpus integrifolia) (protein)
chain: MAYSSLLSLSVLALLFSISSADTRKWFLANGINQNPIGIIEAAVGVSEDLLNLNGMEAKNDEQSGISQTVIVGPWGAKVSTSSNGKAFDDGAFTGIREINLSYNKETAIGDFQVVYDLNGSPYVGQNHKSFITGFTPVKISLDFPSEYIMEVSGYTGNVSGYVVVRSLTFKTNKKTYGPYGVTSGTPFNLPIENGLIVGFKGSIGYWLDYFSMYLSL
glycan array binding signal (z-score) [1]: -0.25
glycan array binding signal (z-score) [2]: 0.218
glycan array binding signal (z-score) [3]: -0.246
glycan array binding signal (z-score) [4]: -0.265
glycan array binding signal (z-score) [5]: 1.4
glycan array binding signal (z-score) [6]: 0.229
glycan array binding signal (z-score) [7]: -0.263
glycan array binding signal (z-score) [8]: -0.268
glycan array binding signal (z-score) [9]: -0.21
glycan array binding signal (z-score) [10]: -0.229
glycan array binding signal (z-score) [11]: -0.274
glycan array binding signal (z-score) [12]: 0.475
glycan array binding signal (z-score) [13]: -0.223
glycan array binding signal (z-score) [14]: -0.276
glycan array binding signal (z-score) [15]: -0.255
glycan array binding signal (z-score) [16]: -0.134
glycan array binding signal (z-score) [17]: -0.24
glycan array binding signal (z-score) [18]: -0.154
glycan array binding signal (z-score) [19]: -0.204
glycan array binding signal (z-score) [20]: -0.192
glycan array binding signal (z-score) [21]: -0.207
glycan array binding signal (z-score) [22]: -0.226
glycan array binding signal (z-score) [23]: -0.256
glycan array binding signal (z-score) [24]: -0.249
glycan array binding signal (z-score) [25]: -0.27
glycan array binding signal (z-score) [26]: -0.237
glycan array binding signal (z-score) [27]: -0.227
glycan array binding signal (z-score) [28]: -0.199
glycan array binding signal (z-score) [29]: -0.205
glycan array binding signal (z-score) [30]: -0.282
